Target: T1, P. nicotianae var. parasitica NADAR (Phytophthora nicotianae, UniProt W2PSB7)
T1 construct: gene PPTG_15997; full-length, in pDEST17 with HRV3C cleavage site allowing tag removal; expressed in E. coli
T1 sequence (W2PSB7 1-187): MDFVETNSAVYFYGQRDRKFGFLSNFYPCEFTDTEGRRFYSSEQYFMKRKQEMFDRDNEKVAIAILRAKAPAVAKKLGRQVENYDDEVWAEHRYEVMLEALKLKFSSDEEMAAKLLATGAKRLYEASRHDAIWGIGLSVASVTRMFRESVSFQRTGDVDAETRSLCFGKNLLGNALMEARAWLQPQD
Assay: X-ray co-crystal structure
Assay type: binding
Settings: 4 mM ADP-ribose; pH 7.5, 20 °C; active site

## Nc1ncnc2c1ncn2[C@@H]1O[C@H](COP(=O)(O)OP(=O)(O)OC[C@H]2OC(O)[C@H](O)[C@@H]2O)[C@@H](O)[C@H]1O (stereo partly shown) [ADP-ribose]
  X-ray co-crystal structure: The ADPr ligand in the P. nicotianae var. parasitica NADAR crystallographic map displayed a bent
